Assay results taken from paper PMC12136788.
The list shows a part of the results.

B1: chr6:17796276:17796277:+_ENSMUSG00000029534_ENSMUST00000053148|mus_mus|FALSE|FALSE (ssRNA)
RNA: GGGAGUUCUACAGUCCGACGAUCUCUCCAAGCUUUUUGCAUUAUUGCAUCUGCAGGGCGAAGAUGAUCUGAAUCACAAGUAAAGAAUGUCUGGUGGUCCUGGGCAGAGAGGUUCAUGUCAUAGUAGGUCAGAGGCUCUCGUCCCAACAGAGGAUUGAGCAUCA
B2: chr4:19447016:19447017:-_ENSMUSG00000028228_ENSMUST00000029885|mus_hu|FALSE|FALSE (ssRNA)
RNA: GGGAGUUCUACAGUCCGACGAUCUGUGAAAACUGAUAAUUUAGAAAUUGUAAAUGCUUUUAUUCAAAACUGUAAAAAGGCACCAAUUACCCUAGUUUGCUGGAAUCACAGUUCUUAUGAAUAAUAGCAUCUACUGAUGAACAUCAACAGAGGAUUGAGCAUCA
B3: 35072574_35072694_612_5pUTR_ENSG00000165280_ENST00000358901|human|control|control (ssRNA)
RNA: GGGAGUUCUACAGUCCGACGAUCAGCGGCAGCGACGACUCAAACGACGGUCGCAGACGCUUCGCUGAGACUGAGCCGAGAAGAGCCGAAUCAUCGGAAGGGAAGCUGCUCCCACCUCAGCCAAUCAGCGCCUGCCCUGCGGACCAACAGAGGAUUGAGCAUCA
B4: chr1:46159212:46159213:+_ENSG00000159596_ENST00000372025|hu_mus|hu_hu_hu_mus_True|38_48 (ssRNA)
RNA: GGGAGUUCUACAGUCCGACGAUCUCUGAUCCCUCCCAAGAAAGCUAGGAAACCGGCUCCAUAAGCCAUCUGAGUGAAAGCUAGGACGGGAAUAUAAGUUUUUGUCAUUACCAUGAGAAGUGGGGGAGCAGUAAAGGGGAUUAACAACAGAGGAUUGAGCAUCA
B5: 10103097_10106107_2642_CDS_ENSMUSG00000056763_ENSMUST00000071087|mouse|control|control (ssRNA)
RNA: GGGAGUUCUACAGUCCGACGAUCGGAGCUUUCGUGAAUGAAGGAACUUAUGAUGGUGUCGACUGAAGGAGGUCUUUGGAGUUUGCUUGCAAUUUUGUUCUGAAGAGCAGGAACUACAGGAGAAGGCUGUCUCAAGUGCUUUGUCAACAGAGGAUUGAGCAUCA
B6: chr5:106037793:106037794:+_ENSMUSG00000054720_ENSMUST00000067924|mus_hu|FALSE|FALSE (ssRNA)
RNA: GGGAGUUCUACAGUCCGACGAUCCUUUGUGUACAUUUUGUGUGAAAAGGAAAAAAAAAUAGGAAAGGCAUUAAGACUACCUAAUUAUUUAUACUGUAUUUGGUAGAAGCGUGUUUCAGUCAAACUUUAACGAAAAAUAAGUUACAACAGAGGAUUGAGCAUCA
B7: chr14:78183846:78183847:+_ENSG00000119705_ENST00000557342|hu_hu|hu_hu_hu_mus_False|8_98 (ssRNA)
RNA: GGGAGUUCUACAGUCCGACGAUCUCUCAGAAAUCUUUCUUUCUUUUAUGUUUGAGCUCCGUGCAAAGCCUUUGCUCUUUGAGCUUGAACGUGGAUCUAUGGGAGGGAAAGCACUGUCAGAAAAGGUUGUAGUGCAUUUAAAGACAACAGAGGAUUGAGCAUCA
B8: chr4:76721835:76721836:+_ENSG00000138768_ENST00000264904|hu_mus|hu_hu_hu_mus_True|68_108 (ssRNA)
RNA: GGGAGUUCUACAGUCCGACGAUCGUUGGCUGGGGUUUUCUGAGACGCUCUGGAAUAUAACUCAUGUUGCUAAUAAAAUCCUAGUUUCUCUAUGAAAUUCUCUUUGCCAAUCCUCUUCUCUAUUAGUUGCUUUAGUUUCUCUUUCAACAGAGGAUUGAGCAUCA
B9: chr11:46405157:46405158:+_ENSG00000110492_ENST00000395566|hu_hu|hu_hu_hu_mus_False|58_88 (ssRNA)
RNA: GGGAGUUCUACAGUCCGACGAUCCCCUCCCCACUUUGGGCACUUGGUGAGAGGGACAGAGGACAGGCGUGAUUGACAAAGCUAACGGGAAGACAAAAGGCACUGGUGGGUUAUAUCUUGGGCCUGUGGGAGAGGAGGGCUCCGCAACAGAGGAUUGAGCAUCA
B10: chr2:61749799:61749800:-_ENSG00000082898_ENST00000401558|hu_hu|FALSE|FALSE (ssRNA)
RNA: GGGAGUUCUACAGUCCGACGAUCUCCUUCGCACUGGUUCCUUGGAAGAAUCUUCCACCUUGUUUUUAUCACAUUUUCCAAAAUUUGUAGUCCAUAGUAUUUCGUAUUCAUAUUCUGAGAAAAUUCCAAAAUUGUGUCGACUCUCAACAGAGGAUUGAGCAUCA
B11: chr7:149068622:149068623:-_ENSMUSG00000025139_ENSMUST00000001950|mus_mus|FALSE|FALSE (ssRNA)
RNA: GGGAGUUCUACAGUCCGACGAUCAGACAGGUACUGAGUGAGGUUCCUGCUCUGCAGUGUCUGCAGUCUGCUGGUAACACUAAGUGGACCACUUAAGGAGGUUCUGCCUGCCUGACUCAUCCACCCUGCAAGAGGGCAUCUGCUCAACAGAGGAUUGAGCAUCA
B12: chr10:5892124:5892125:-_ENSMUSG00000061759_ENSMUST00000095893|mus_hu|FALSE|FALSE (ssRNA)
RNA: GGGAGUUCUACAGUCCGACGAUCCUUGAAAUUAUAUAUUUAACCUGAAAAAAAGUUGCUAAAAUUCCAAUAUAAAUGUAAAUAUCUUUAACUUGCUUAACCCAGCUAUCCCCAAAACAGUGUAGUGGGGCAAAAUGUUCAAAACAACAGAGGAUUGAGCAUCA
B13: chr2:60072322:60072323:+_ENSMUSG00000026977_ENSMUST00000102748|mus_mus|FALSE|FALSE (ssRNA)
RNA: GGGAGUUCUACAGUCCGACGAUCAGAUCUUGUAUUCAAGGAAUCUUGACUAGAUCUUCGUGAGAAAAAAGUAGAUGACAUGCUAGAAGCUAUCCGUGACAGCAAUCUCCUAGUUGUACGCCUACCUUCAUUGUCAGAAGAUUCCAACAGAGGAUUGAGCAUCA
B14: chr4:144460044:144460045:+_ENSG00000153147_ENST00000283131|hu_mus|hu_hu_hu_mus_False|18_78 (ssRNA)
RNA: GGGAGUUCUACAGUCCGACGAUCACGGUCCAUAGCCUGAAGAUCAACUUGCGGAUUCCAAUCAGAAUCAUAUAAAAUGACUACAUCAGCAGUUGCAAGAUUGAUGCCCAGACCACCAGCACGCGUGCUUAGCAUAAAUACAAACAACAGAGGAUUGAGCAUCA
B15: chr8:74858975:74858976:-_ENSG00000154582_ENST00000284811|hu_mus|hu_hu_hu_mus_True|18_108 (ssRNA)
RNA: GGGAGUUCUACAGUCCGACGAUCGACCUUGUACGUAAAAUACAUGCACACUUUUGAUAGCACAUGUGAGGGGAUCUCUCUAAAAUUGACCUCGUUGGUUUCAUUCUCAGCAAACUGACCUGGGCCACUCAACAUAGCCUUUAUCAACAGAGGAUUGAGCAUCA
B16: chr4:144449117:144449118:+_ENSG00000153147_ENST00000283131|hu_hu|motif|central (ssRNA)
RNA: GGGAGUUCUACAGUCCGACGAUCCACUAUUUCUGACAACUUAGAUUUUUCAUUUUUGAUCCUGUGAGCUUCAUCGGUUACGGAGUAUCUCCAAUUAAAUUUUUUGAACACAGACUUCUCUUUAAUAAGCAUUUCAUAAGAUGUCAACAGAGGAUUGAGCAUCA
B17: 108416455_108416656_1812_CDS_ENSMUSG00000032604_ENSMUST00000006838|mouse|control|control (ssRNA)
RNA: GGGAGUUCUACAGUCCGACGAUCAUCAGCUGGGAAAUUUGGCACUCGGAUGUCCAAGGGCUUGGGAGCAGGAAAGUUGGUGAUGACAACUUGUAGUGGCUCUAGAACAGCCAUGGCACGUGGGGCUGCAUCAUUCAGCACAUCCAACAGAGGAUUGAGCAUCA
B18: chr11:52220846:52220847:+_ENSMUSG00000036275_ENSMUST00000036952|mus_mus|motif|central (ssRNA)
RNA: GGGAGUUCUACAGUCCGACGAUCGGGCCUUUCAAAGGGAACACUGCUGCCAGAGGCACAAUAAAUGGAAAAUAAUAAGAACGGCACCAAAGGAUAAAGUAAUGUUUAACUCACAUUUCAGACACCUGAUUGAAUCUAGCUCUACAACAGAGGAUUGAGCAUCA
B19: chr7:7679991:7679992:-_ENSG00000106399_ENST00000396682|hu_hu|hu_hu_hu_mus_False|8_28 (ssRNA)
RNA: GGGAGUUCUACAGUCCGACGAUCUGGGAUGAAUCUUUUCCAGCUUCCCCACGAAGCACACGGGCCGGUCGAUAUACUGUGGUAACAUGCUGGCGUUGACGCGCGCUCUGGGCAAGUGCAUUAUGUCCACCAUGAUUCUGCCGCCAACAGAGGAUUGAGCAUCA
B20: chr1:225611761:225611762:-_ENSG00000143815_ENST00000272163|hu_mus|hu_hu_hu_mus_True|48_58 (ssRNA)
RNA: GGGAGUUCUACAGUCCGACGAUCCCAGGCCAUCGGCCUCUGACCACUUCACCCUCAACAAACUUCCUACUUGGCAUUUUCUAUAAUUAACCUGCGCGCGCUCCGGCGGGAACUCCAGCCACUCCAGGACAGUCACCAGCAGCCCAACAGAGGAUUGAGCAUCA
B21: chr7:141441981:141441982:+_ENSG00000106028_ENST00000265304|hu_mus|hu_hu_hu_mus_False|8_18 (ssRNA)
RNA: GGGAGUUCUACAGUCCGACGAUCCUCAUGUCUUACAAACUGACGAAAUACCUGUAACACAGGUCUUCGAAACAUGGCUUCUGUUUUUCUUACAACCUAAUCUUUAGGCUUUUCCUACCUGACGAUCUAACCCGAGCAAAAUGACAACAGAGGAUUGAGCAUCA
B22: chrX:73036348:73036349:-_ENSMUSG00000016382_ENSMUST00000114059|mus_hu|FALSE|FALSE (ssRNA)
RNA: GGGAGUUCUACAGUCCGACGAUCUGCAUACUUGGCAUUAUUGUGCUUGUCAUCUUCUGUUAGAUUGCCACUCUUCACAAGGUCAUAGUUUAUACAGCCUGGCUGGAUGGCAUCAAUUAAAUCCACAACUGCCAAACUGGAGCUCAACAGAGGAUUGAGCAUCA

biological target: T1, UNK ZnF1-3 (human, UniProt Q9C0B0 31-174); experiment: nsRBNS (natural sequence RNA bind-n-seq); RBNS binding buffer (assumed for nsRBNS): 25 mM Tris pH 7.5, 150 mM KCl, 3 mM MgCl2, 0.01% Triton X-100, 500 ug/ml BSA, 20 U/ml SUPERase-In, 4 C; UNK is unkempt and MSI1 is Musashi-1; names of the RNAs are library labels; protein concentration not given here; high values mean tight binding
T1 sequence: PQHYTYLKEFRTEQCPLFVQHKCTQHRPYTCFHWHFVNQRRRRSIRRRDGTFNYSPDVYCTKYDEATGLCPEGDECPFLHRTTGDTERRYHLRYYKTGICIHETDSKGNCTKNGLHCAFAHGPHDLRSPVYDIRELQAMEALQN

Going from B1 to B2, the binding signal falls from 1.38 enrichment R to 0.637 enrichment R.

Compared with B3, B4 is higher in binding signal: 0.72 enrichment R for the first, 1.32 enrichment R for the second.

Going from B5 to B6, the binding signal rises from 1.36 enrichment R to 1.82 enrichment R.

Going from B7 to B8, the binding signal falls from 1.02 enrichment R to 0.479 enrichment R.

Going from B9 to B10, the binding signal falls from 2.93 enrichment R to 0.667 enrichment R.

Compared with B11, B12 is higher in binding signal: 0.842 enrichment R for the first, 1.91 enrichment R for the second.

Going from B13 to B14, the binding signal rises from 0.303 enrichment R to 1.27 enrichment R.

Going from B15 to B16, the binding signal rises from 0.704 enrichment R to 0.939 enrichment R.

Compared with B17, B18 is higher in binding signal: 1.3 enrichment R for the first, 2.95 enrichment R for the second.

Going from B19 to B20, the binding signal rises from 0.462 enrichment R to 1.56 enrichment R.

Compared with B21, B22 is higher in binding signal: 0.715 enrichment R for the first, 0.777 enrichment R for the second.
